This is one part of the list. These are noisy estimates, calculated here from bound and input reads.
target: T1, Pho4 (S. cerevisiae) (UniProt P07270); assay: relative binding free energy (BET-seq); higher = weaker binding; settings: reference: library average
T1 sequence: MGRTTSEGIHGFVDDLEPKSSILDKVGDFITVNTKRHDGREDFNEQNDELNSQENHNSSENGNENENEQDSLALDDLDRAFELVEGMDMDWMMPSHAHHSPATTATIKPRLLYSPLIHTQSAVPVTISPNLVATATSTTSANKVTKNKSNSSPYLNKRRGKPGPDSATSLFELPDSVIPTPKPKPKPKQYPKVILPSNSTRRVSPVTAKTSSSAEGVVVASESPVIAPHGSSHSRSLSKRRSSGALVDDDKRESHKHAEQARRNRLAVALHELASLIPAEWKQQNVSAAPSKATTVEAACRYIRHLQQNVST

Sequence	relative binding free energy [kcal/mol]
ATTGGCACGTGTAGCG	-0.03
AGTTCCACGTGGGGGC	-0.07
AGTCGCACGTGGATGG	-0.04
TGGTCCACGTGCATGT	0.03
GGAGGCACGTGCATGG	-0.15
TAGGACACGTGTTGTA	0.07
TATAGCACGTGGCTTG	-0.21
TTTGACACGTGGCTAT	-0.1
GATGGCACGTGATCTG	0.09
GATTTCACGTGTTTAA	0.2
GGTTTCACGTGACTTA	0.38
TGCGTCACGTGCTGTT	-0.04
TTTCGCACGTGGTTTC	-0.14
ATAAGCACGTGAGGGG	0.21
TGGGTCACGTGTATCA	0.12
AGGTGCACGTGTAAGA	-0.03
CGATGCACGTGAGTGG	0.18
CTATTCACGTGGAATG	0.35
GGGCTCACGTGAAAGT	0.5
TGCTGCACGTGGGGCG	-0.19
AAAGTCACGTGTGCGG	-0.01
TGATACACGTGTGTAT	-0.04
AGTCGCACGTGTTGAG	-0.04
TACTACACGTGGGGGA	0.07
CGTTTCACGTGGGGGC	0.22

Sequence	relative binding free energy [kcal/mol]
TTCATCACGTGGATAG	0.15
GGGCTCACGTGGCATG	0.33
ATTGGCACGTGTGGGT	-0.03
ATATGCACGTGAAGTT	0.2
AGTGTCACGTGTGGTG	0.14
GTTTGCACGTGATTAT	0.17
ATTTACACGTGGTGGT	0.01
TGTGTCACGTGTTAGC	0.08
TTCGGCACGTGTCGTG	-0.05
GGTTTCACGTGAATCG	0.54
CGGTACACGTGGTGAG	0.03
AAAGCCACGTGAGGTT	0.2
TTTAGCACGTGTTGAT	-0.1
AGTATCACGTGCTTAG	0.1
ATTAGCACGTGTAGCT	0.04
CTCTTCACGTGTTTGT	0.14
TCAAGCACGTGGGTAG	-0.18
TTCGGCACGTGAAGTG	0.18
TGTTTCACGTGCCGGC	0.28
TTTTACACGTGATAGA	0.1
TTAGTCACGTGTCAAT	0.08
GGAGTCACGTGGGTTT	0.06
TGCTTCACGTGTGGTA	0.2
GAGTGCACGTGGGTCA	-0.2
CGTGTCACGTGTTCAG	0.06

Sequence	relative binding free energy [kcal/mol]
CGGTCCACGTGGAGGG	0.02
GGGTACACGTGATGAG	0.26
GGTTGCACGTGTCTTG	0.11
TGTGCCACGTGTTTCG	-0.06
TGCTTCACGTGTGAAT	0.39
GGGCGCACGTGAGGTT	0.05
GTGGTCACGTGCAGAG	0.01
TTGAGCACGTGTTGAG	-0.26
TTAGACACGTGTCATG	0.04
TTGCACACGTGGCTTT	0
GATAGCACGTGTAGGG	-0.03
GTTTTCACGTGGGACT	0.28
TTAGTCACGTGAGATT	0.31
CTGGTCACGTGGTGTG	-0.06
AATTTCACGTGAGTAT	0.44
TGCAGCACGTGGGTCG	-0.29
TTGGTCACGTGCCATG	0.07
GTTTGCACGTGTAGAT	0.31
TGTTACACGTGCCTGG	0
TGTAGCACGTGAAGGT	0.16
ATTTTCACGTGCTTCG	0.23
CACGACACGTGGGGGG	-0.3
TGGGGCACGTGGATGC	-0.07

Reference: the BET-seq Pho4 binding data (Le et al. 2018)
